B1: CGUUAUC (DNA:RNA)
RNA: GGGAGACCGGAAUUCAGAUUGUCCCGUUAUCUUAAAUCCCGUCGUAGCCACCA
DNA 1: CAATCTGAATTCCGGTCTCCC
DNA 2: TGGTGGCTACGACGGGATT
B2: CAGCUCA (DNA:RNA)
RNA: B1 RNA with G26A, U27G, U28C, A29U, U30C, C31A
DNA 1: CAATCTGAATTCCGGTCTCCC
DNA 2: TGGTGGCTACGACGGGATT
B3: AUUAGUG (DNA:RNA)
RNA: B1 RNA with C25A, G26U, U28A, A29G, C31G
DNA 1: CAATCTGAATTCCGGTCTCCC
DNA 2: TGGTGGCTACGACGGGATT
B4: GAAAUAU (DNA:RNA)
RNA: GGGAGACCGGAAUUCAGAUUGUCCGAAAUAUUUAAAUCCCGUCGUAGCCACCA
DNA 1: CAATCTGAATTCCGGTCTCCC
DNA 2: TGGTGGCTACGACGGGATT
B5: GCAAAGU (DNA:RNA)
RNA: B4 RNA with A26C, U29A, A30G
DNA 1: CAATCTGAATTCCGGTCTCCC
DNA 2: TGGTGGCTACGACGGGATT
B6: GUCAUAG (DNA:RNA)
RNA: B4 RNA with A26U, A27C, U31G
DNA 1: CAATCTGAATTCCGGTCTCCC
DNA 2: TGGTGGCTACGACGGGATT
B7: UCCAGAU (DNA:RNA)
RNA: B4 RNA with G25U, A26C, A27C, U29G
DNA 1: CAATCTGAATTCCGGTCTCCC
DNA 2: TGGTGGCTACGACGGGATT
B8: CACUCGU (DNA:RNA)
RNA: B1 RNA with G26A, U27C, A29C, U30G, C31U
DNA 1: CAATCTGAATTCCGGTCTCCC
DNA 2: TGGTGGCTACGACGGGATT
B9: GACGGCC (DNA:RNA)
RNA: B4 RNA with A27C, A28G, U29G, A30C, U31C
DNA 1: CAATCTGAATTCCGGTCTCCC
DNA 2: TGGTGGCTACGACGGGATT
B10: UAGUCCU (DNA:RNA)
RNA: B4 RNA with G25U, A27G, A28U, U29C, A30C
DNA 1: CAATCTGAATTCCGGTCTCCC
DNA 2: TGGTGGCTACGACGGGATT
B11: GCUCCAU (DNA:RNA)
RNA: B4 RNA with A26C, A27U, A28C, U29C
DNA 1: CAATCTGAATTCCGGTCTCCC
DNA 2: TGGTGGCTACGACGGGATT
B12: CCAUGCA (DNA:RNA)
RNA: B1 RNA with G26C, U27A, A29G, U30C, C31A
DNA 1: CAATCTGAATTCCGGTCTCCC
DNA 2: TGGTGGCTACGACGGGATT
B13: AGUAUGG (DNA:RNA)
RNA: B1 RNA with C25A, U28A, A29U, U30G, C31G
DNA 1: CAATCTGAATTCCGGTCTCCC
DNA 2: TGGTGGCTACGACGGGATT
B14: GCAACGG (DNA:RNA)
RNA: B4 RNA with A26C, U29C, A30G, U31G
DNA 1: CAATCTGAATTCCGGTCTCCC
DNA 2: TGGTGGCTACGACGGGATT
B15: GAGCAAA (DNA:RNA)
RNA: B4 RNA with A27G, A28C, U29A, U31A
DNA 1: CAATCTGAATTCCGGTCTCCC
DNA 2: TGGTGGCTACGACGGGATT
B16: GUCUCAG (DNA:RNA)
RNA: B4 RNA with A26U, A27C, A28U, U29C, U31G
DNA 1: CAATCTGAATTCCGGTCTCCC
DNA 2: TGGTGGCTACGACGGGATT
B17: CUAAUCU (DNA:RNA)
RNA: B4 RNA with G25C, A26U, A30C
DNA 1: CAATCTGAATTCCGGTCTCCC
DNA 2: TGGTGGCTACGACGGGATT
B18: GGAUGAC (DNA:RNA)
RNA: B1 RNA with C25G, U27A, A29G, U30A
DNA 1: CAATCTGAATTCCGGTCTCCC
DNA 2: TGGTGGCTACGACGGGATT
B19: GUACCAA (DNA:RNA)
RNA: B4 RNA with A26U, A28C, U29C, U31A
DNA 1: CAATCTGAATTCCGGTCTCCC
DNA 2: TGGTGGCTACGACGGGATT
B20: CAUAGGA (DNA:RNA)
RNA: B1 RNA with G26A, U28A, A29G, U30G, C31A
DNA 1: CAATCTGAATTCCGGTCTCCC
DNA 2: TGGTGGCTACGACGGGATT
B21: AAUGAGU (DNA:RNA)
RNA: B1 RNA with C25A, G26A, U28G, U30G, C31U
DNA 1: CAATCTGAATTCCGGTCTCCC
DNA 2: TGGTGGCTACGACGGGATT
B22: GCUCCCU (DNA:RNA)
RNA: B4 RNA with A26C, A27U, A28C, U29C, A30C
DNA 1: CAATCTGAATTCCGGTCTCCC
DNA 2: TGGTGGCTACGACGGGATT
B23: GCACAAU (DNA:RNA)
RNA: B4 RNA with A26C, A28C, U29A
DNA 1: CAATCTGAATTCCGGTCTCCC
DNA 2: TGGTGGCTACGACGGGATT
B24: AGAUAAU (DNA:RNA)
RNA: B1 RNA with C25A, U27A, U30A, C31U
DNA 1: CAATCTGAATTCCGGTCTCCC
DNA 2: TGGTGGCTACGACGGGATT
B25: UGGAAAG (DNA:RNA)
RNA: B1 RNA with C25U, U27G, U28A, U30A, C31G
DNA 1: CAATCTGAATTCCGGTCTCCC
DNA 2: TGGTGGCTACGACGGGATT
B26: GGCGGAC (DNA:RNA)
RNA: B1 RNA with C25G, U27C, U28G, A29G, U30A
DNA 1: CAATCTGAATTCCGGTCTCCC
DNA 2: TGGTGGCTACGACGGGATT
B27: UAUAACU (DNA:RNA)
RNA: B4 RNA with G25U, A27U, U29A, A30C
DNA 1: CAATCTGAATTCCGGTCTCCC
DNA 2: TGGTGGCTACGACGGGATT
B28: UCUUGCG (DNA:RNA)
RNA: B1 RNA with C25U, G26C, A29G, U30C, C31G
DNA 1: CAATCTGAATTCCGGTCTCCC
DNA 2: TGGTGGCTACGACGGGATT
B29: CAGUCCC (DNA:RNA)
RNA: B1 RNA with G26A, U27G, A29C, U30C
DNA 1: CAATCTGAATTCCGGTCTCCC
DNA 2: TGGTGGCTACGACGGGATT
B30: CGUUUGC (DNA:RNA)
RNA: B1 RNA with A29U, U30G
DNA 1: CAATCTGAATTCCGGTCTCCC
DNA 2: TGGTGGCTACGACGGGATT
B31: UCACUGC (DNA:RNA)
RNA: B4 RNA with G25U, A26C, A28C, A30G, U31C
DNA 1: CAATCTGAATTCCGGTCTCCC
DNA 2: TGGTGGCTACGACGGGATT

Numbering of substitutions follows the chain as printed; changes in the protein carry UniProt numbers. The list shows a part of the results.

The target in this assay is T1, RBFOX1 RRM RbFoxmut (Fox-RRM*) (Homo sapiens, UniProt Q9NWB1 109-208, R118D;E147R;N151S;E152T).
T1 sequence: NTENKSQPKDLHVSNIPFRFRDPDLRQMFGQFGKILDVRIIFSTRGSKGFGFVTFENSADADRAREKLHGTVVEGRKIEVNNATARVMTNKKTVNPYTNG
The assay is described as follows: EMSA; HiTS-Eq, 1 nM pool, 10 min; buffer printed only for the single-RNA assays: 10 mM Tris pH 7.5, 150 mM NaCl, 3.4 mM EDTA, 0.001% NP-40, 30 C. As to conditions: tags: His6 N-terminal (pET28a); label: 5' 32P. The gist of the method:
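These values rest on relative association constants, computed from read-count changes of each RNA species versus the control reaction and normalised to the cognate motif. Reads came from free RNA recovered by 8% native PAGE after purified RbFox RRM (wild type or mutant) at increasing concentrations was equilibrated for 10 min in 50 µL with 1 nM of a 5′-radiolabelled pool with 7 randomized nucleotides and DNA-annealed flanks.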
Background: A gel shift assay detects complexes by their altered migration in electrophoresis.
With B1, the binding signal was 0.11 KA relative to UGCAUGU.

Consider B2, for which the binding signal is 0.0925 KA relative to UGCAUGU.

Take B3: the binding signal was 0.162 KA relative to UGCAUGU.

For the molecule B4, the binding signal is 0.0906 KA relative to UGCAUGU.

In the case of B5, the binding signal is 0.0955 KA relative to UGCAUGU.

Take B6: the binding signal was 0.115 KA relative to UGCAUGU.

As for B7, the binding signal was 0.0838 KA relative to UGCAUGU.

For B8, the binding signal is 0.123 KA relative to UGCAUGU.

B9: the binding signal was 0.147 KA relative to UGCAUGU.

For B10, the binding signal is 0.0762 KA relative to UGCAUGU.

Consider B11, for which the binding signal was 0.0852 KA relative to UGCAUGU.

Regarding B12, the binding signal is 0.211 KA relative to UGCAUGU.

In the case of B13, the binding signal is 0.222 KA relative to UGCAUGU.

With B14, the binding signal is 0.0714 KA relative to UGCAUGU.

Turning to B15, the binding signal was 0.0797 KA relative to UGCAUGU.

Take B16: the binding signal is 0.148 KA relative to UGCAUGU.

On to B17, for which the binding signal was 0.0573 KA relative to UGCAUGU.

B18: the binding signal was 0.124 KA relative to UGCAUGU.

As to B19, the binding signal was 0.0746 KA relative to UGCAUGU.

On to B20, for which the binding signal is 0.0763 KA relative to UGCAUGU.

Turning to B21, the binding signal is 0.16 KA relative to UGCAUGU.

For the molecule B22, the binding signal is 0.0359 KA relative to UGCAUGU.

In the case of B23, the binding signal is 0.0618 KA relative to UGCAUGU.

Regarding B24, the binding signal was 0.0895 KA relative to UGCAUGU.

Turning to B25, the binding signal is 0.131 KA relative to UGCAUGU.

As for B26, the binding signal is 0.0664 KA relative to UGCAUGU.

Take B27: the binding signal was 0.0811 KA relative to UGCAUGU.

For the molecule B28, the binding signal is 0.168 KA relative to UGCAUGU.

In the case of B29, the binding signal was 0.0663 KA relative to UGCAUGU.

In the case of B30, the binding signal was 0.247 KA relative to UGCAUGU.

Consider B31, for which the binding signal was 0.106 KA relative to UGCAUGU.

Values taken from article PMC9911399, “Two distinct binding modes provide the RNA-binding protein RbFox with extraordinary sequence specificity”.
